In all, about 94,000 compounds went through this assay and about 4,000 (4.3%) were called active. Inconclusive means that the source gave no clear call. Such entries were picked first, then a sample of the others. Calls follow the shape of the dose curve; as a rule, active = well fitted inhibition curve with a large enough effect; inconclusive = small, poorly fitted or top-dose-only effect; inactive = no such curve, though single readings can be large or run the other way. Potencies of inconclusive entries are doubtful fits and often do not repeat.
assay: Cytotoxic Profiling in NIH 3T3 Cell Line of Diverse Libraries Using Quantitative High-Throughput Screening; conditions: NIH 3T3 viability, CellTiter-Glo ATP luminescence, 48-72 h; activity change, negative = cytotoxicity: at 96.7 µM (top of the series) unless noted; series mostly up to 96.7 µM; also: nearly all actives have a fitted effect of over 55% in size
How it was run: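 NIH 3T3 cells at 400 cells/well received 23 nL of compound by pintool and were incubated 48 or 72 h at 37 °C. Viability was read as ATP-coupled CellTiter-Glo luminescence.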
% is scaled to controls: 0 for no effect and ±100 for the full control effect; potency is read from the fitted curve at half-maximal effect; tags tell the direction and shape of the fitted curve.

**Q.** With `Cc1cc(F)ccc1OC1CN([S+](=O)([O-])CCC(F)(F)F)C1` as the molecule, how does the Potency read?
**A.** inconclusive: 56.2 µM [inhibitor, partial curve, poor fit]

**Q.** Which “activity change, negative = cytotoxicity” value does the source give for `COc1cc(O)ccc1CN1CCCC2(Cc3ccccc3CNC2=O)C1` (stereo not drawn) here?
**A.** inactive: -18.5%

**Q.** Which Potency does the source give for `CS(=O)(=O)N1CCCN(C(=O)Cc2cccs2)c2ccccc21` here?
**A.** inconclusive: 56.2 µM [inhibitor, partial curve, poor fit]

**Q.** Which “activity change, negative = cytotoxicity” value does the source give for `CC(C)(C)c1cc(C(=O)N2CCOCC2)nn2cccc12` here?
**A.** inactive: -9.85% [at 138 µM]

**Q.** For `COC(=O)C1=C(C)N=C2SC=C(CC(=O)Nc3ccc(C)cc3)N2C1c1cccc(OC)c1` (stereo not drawn), which Potency is on record?
**A.** inconclusive: 44.7 µM [inhibitor, partial curve, poor fit]

**Q.** Which Potency does the source give for `COc1cc(-c2nc(-c3c(C)noc3C)cc3[nH]c(C)cc23)ccn1` here?
**A.** inconclusive: 11.2 µM [inhibitor, full curve, poor fit]

**Q.** For `CC1=C[C@@H](CNC(=O)c2cncnc2)[C@H](C(C)C)C[C@H]1Cc1nnc(-c2ccncc2)o1`, which Potency is on record?
**A.** inconclusive: 31.6 µM [inhibitor, partial curve]

**Q.** For `O=C(Cc1ccccc1)NC1CCCN(c2ccnc3ccnn23)C1` (stereo not drawn), which “activity change, negative = cytotoxicity” value is on record?
**A.** inactive: -8.89%

**Q.** With `c1cncc(-c2nc3ncccc3[nH]2)c1` as the molecule, how does the Potency read?
**A.** inconclusive: 112 µM [inhibitor, partial curve]

**Q.** With `CCOC(=O)[C@@H]1CN(C(=O)c2cccs2)[C@H]2c3ccccc3O[C@@H]12` as the molecule, how does the Potency read?
**A.** inconclusive: 50.1 µM [inhibitor, partial curve, poor fit]

**Q.** For `CCN(CC)C(=O)[C@@H]1CCCN1[C@H](Cc1ccccc1)C(=O)NC`, which “outcome” value is on record?
**A.** inactive [at 174 µM]

**Q.** Which “outcome” value does the source give for `Cc1nc(C)c(C(=O)NCC2Cn3cccc3C(=O)N2C)s1` (stereo not drawn) here?
**A.** inactive

**Q.** With `Cn1cc(CC(=O)N2CCCc3ncc(C(=O)Nc4cccc(C(F)(F)F)c4)cc32)c2ccccc21` as the molecule, how does the Potency read?
**A.** inconclusive: 35.5 µM [inhibitor, partial curve]

**Q.** Which Potency does the source give for `COc1ccc(C(=O)N2CCC(Cc3nc(C(C)C)no3)CC2)cc1` here?
**A.** inconclusive: 28.2 µM [inhibitor, partial curve, poor fit]

**Q.** Which Potency does the source give for `COc1ccc(CC(=O)N2CCC(c3n[nH]c(=O)n3-c3ccccc3)CC2)cc1Cl` here?
**A.** inconclusive: 44.7 µM [inhibitor, partial curve, poor fit]

**Q.** With `Cc1ccccc1C(=O)N1CCCC(C(=O)N2CCC(c3nc4ncccc4[nH]3)CC2)C1` (stereo not drawn) as the molecule, how does the “activity change, negative = cytotoxicity” value read?
**A.** inactive: -13%

**Q.** With `COc1ccc(CN2CCCCC23Cc2ccccc2CNC3=O)cc1` (stereo not drawn) as the molecule, how does the “outcome” value read?
**A.** inactive

**Q.** With `CCCc1noc(-c2cccn3c(CNC(=O)c4ccc(C(C)(C)C)cc4)nnc23)n1` as the molecule, how does the Potency read?
**A.** active: 39.8 µM

**Q.** For `NC(=O)CN1CCCC(c2nc(-c3ccc4nc[nH]c4c3)no2)C1` (stereo not drawn), which “activity change, negative = cytotoxicity” value is on record?
**A.** inactive: -20.1%

**Q.** Which Potency does the source give for `Cc1noc(-c2cn(C3CCN(C(=O)c4cccc(Br)c4)CC3)nn2)n1` here?
**A.** inconclusive: 35.5 µM [inhibitor, partial curve, poor fit]

**Q.** For `CCNC(=O)c1n[nH]c2c1CN(C(=O)c1cc(F)cc(F)c1)CC2`, which Potency is on record?
**A.** inconclusive: 31.6 µM [inhibitor, full curve]

**Q.** Which “activity change, negative = cytotoxicity” value does the source give for `O=C1NCc2ccccc2CC12CCCN(CC1=CCCCC1)C2` (stereo not drawn) here?
**A.** inactive: -6.95%

**Q.** For `CC(C)CNC(=O)c1cc(C(C)(C)C)nc2c1cnn2C`, which Potency is on record?
**A.** inconclusive: 89.1 µM [inhibitor, partial curve]

**Q.** For `COCC1CN(C2CCC2)CC12CCN(C(=O)Cc1cccc(OC)c1)CC2` (stereo not drawn), which Potency is on record?
**A.** inconclusive: 50.1 µM [inhibitor, partial curve, poor fit]

**Q.** Which “activity change, negative = cytotoxicity” value does the source give for `Cc1nn(CCC#N)c(C)c1[C@@H]1C=C[C@@H](NC(=O)NCc2ccccc2)C1` here?
**A.** inactive: -26.8% [at 174 µM]

**Q.** Which “activity change, negative = cytotoxicity” value does the source give for `O=C(Cc1ccc(F)cc1)N1CC(c2nnc(-c3ccncc3)o2)C2(CCOCC2)C1` (stereo not drawn) here?
**A.** inactive: -11.4%

**Q.** With `CC(=O)N1CCCC2(C1)CN(C)c1ccc(C(=O)NCC(F)(F)F)cc12` (stereo not drawn) as the molecule, how does the Potency read?
**A.** inconclusive: 89.1 µM [inhibitor, partial curve, poor fit]

**Q.** For `CC(C)Cc1cnc(C2CCCN(C(=O)c3ccc(Cl)cc3)C2)[nH]1` (stereo not drawn), which Potency is on record?
**A.** inconclusive: 89.1 µM [inhibitor, single point]

**Q.** Which Potency does the source give for `COc1cc(Nc2nc(-c3ccccc3F)no2)cc(OC)c1OC` here?
**A.** inconclusive: 35.5 µM [inhibitor, partial curve]

**Q.** Which Potency does the source give for `Cc1nc(CN2C(=O)OC3(CCN(C(=O)c4scnc4C)CC3)C2(C)c2ccccc2)cs1` (stereo not drawn) here?
**A.** active: 28.2 µM

**Q.** For `O=C(c1ccc(F)cc1)N1CCCN(c2cc(-c3ccc(F)cc3)[nH]n2)CC1`, which “activity change, negative = cytotoxicity” value is on record?
**A.** inactive: -23.7%

**Q.** For `O=C1NCc2ccccc2CC12CCCN2Cc1ccc(F)cc1F` (stereo not drawn), which Potency is on record?
**A.** inconclusive: 79.4 µM [inhibitor, partial curve]

**Q.** With `O=C(NCCn1cccc1-c1nc(-c2ccccc2)no1)c1cccc(Cl)c1` as the molecule, how does the Potency read?
**A.** inconclusive: 50.1 µM [inhibitor, partial curve, poor fit]

**Q.** With `O=C(NC[C@H]1O[C@H](Cc2cc(CN3CCNCC3)on2)CC[C@@H]1O)c1ccccc1F` as the molecule, how does the “activity change, negative = cytotoxicity” value read?
**A.** inactive: -13.9%

**Q.** Which Potency does the source give for `CC(C)c1ccc(S(=O)(=O)N2CCCC(Cn3cnc4cccnc43)C2)cc1` (stereo not drawn) here?
**A.** inconclusive: 50.1 µM [inhibitor, partial curve, poor fit]

**Q.** Which “activity change, negative = cytotoxicity” value does the source give for `COc1ccc(NC(=O)NCC2Cn3cccc3C(=O)N2C)cc1` (stereo not drawn) here?
**A.** inactive: -17.7%

**Q.** With `O=C(CCCc1ccccc1)N1CCn2c(nnc2[C@@H]2C[C@@H](O)CN2Cc2ccccc2)C1` as the molecule, how does the “outcome” value read?
**A.** inactive

**Q.** For `O=C(Nc1ccccc1F)N1CC2CCC(C1)N2Cc1ccc(-c2ccccc2)cc1`, which Potency is on record?
**A.** inconclusive: 50.1 µM [inhibitor, partial curve, poor fit]

**Q.** With `CCCC(=O)N1Cc2ccccc2CC2(CCN(C)CC2)C1` as the molecule, how does the “activity change, negative = cytotoxicity” value read?
**A.** inactive: -2.13% [at 138 µM]

**Q.** With `CN1CCC2(C1)CN(CC1CC1)c1ccc(C(=O)Nc3ccccc3)cc12` (stereo not drawn) as the molecule, how does the Potency read?
**A.** inconclusive: 56.2 µM [inhibitor, partial curve, poor fit]

**Q.** Which “activity change, negative = cytotoxicity” value does the source give for `CCn1cc(S(=O)(=O)N2CCC(c3noc(-c4ccncc4)n3)C2)cn1` (stereo not drawn) here?
**A.** inactive: -24.7%

**Q.** With `CN(Cc1ccncc1)Cc1ccc(-c2ccccc2)cc1` as the molecule, how does the Potency read?
**A.** inconclusive: 31.6 µM [inhibitor, partial curve, poor fit]

**Q.** For `CCOC(=O)C1CCN(C(=O)C2CCc3nnc(C4CCN([S+](C)(=O)[O-])CC4)n32)CC1` (stereo not drawn), which “activity change, negative = cytotoxicity” value is on record?
**A.** inactive: -6.16%

**Q.** For `Cc1cc(-c2cnc3[nH]cc(CC(N)=O)c3c2)ccn1`, which Potency is on record?
**A.** inconclusive: 63.1 µM [inhibitor, full curve, poor fit]

**Q.** Which “activity change, negative = cytotoxicity” value does the source give for `CCCC(=O)N1Cc2ccccc2CC2(CCCN(Cc3ccccn3)C2)C1` (stereo not drawn) here?
**A.** inactive: -11.1%

**Q.** With `O=C(CCCc1ccccc1)N1CCCCC1c1nc(-c2ccncc2)n[nH]1` (stereo not drawn) as the molecule, how does the “activity change, negative = cytotoxicity” value read?
**A.** inactive: -35.1%

**Q.** Which Potency does the source give for `COc1cccc(N2C(=O)NC(=NC3CCCCC3)C23CCCN(Cc2ccc(N(C)C)cc2)C3)c1` (stereo not drawn) here?
**A.** active: 28.2 µM

**Q.** With `Cc1noc(C)c1[S+](=O)([O-])N1CCC2(C1)C(=O)N(Cc1ccccc1)c1ccccc12` (stereo not drawn) as the molecule, how does the Potency read?
**A.** inconclusive: 25.1 µM [inhibitor, full curve, poor fit]

**Q.** With `CS(=O)(=O)N1CCOc2ccc(CCC(=O)NCCc3ccccc3)cc2C1` as the molecule, how does the “activity change, negative = cytotoxicity” value read?
**A.** inactive: -5.61%

**Q.** Which “activity change, negative = cytotoxicity” value does the source give for `Cc1cc(C)cc(NC2=N[C@H]3[C@@H](O)[C@H](O)C[C@H](C(=O)N4CCC(C(N)=O)CC4)[C@H]3S2)c1` here?
**A.** inactive: -5.71%

**Q.** With `COc1cccc(Nc2ccc3c(n2)C(C)(C(=O)NCc2ccco2)CN(C)C3)c1` (stereo not drawn) as the molecule, how does the Potency read?
**A.** inconclusive: 50.1 µM [inhibitor, partial curve]

**Q.** Which Potency does the source give for `CCc1cccc(NC(=O)C2CCN(C(=O)c3nnn4c3COC(c3ccc(OC)cc3)C4)CC2)c1` (stereo not drawn) here?
**A.** inconclusive: 25.1 µM [inhibitor, full curve, poor fit]

**Q.** For `CN1N=C(C(=O)N2CCOC(Cc3cccc4ccccc34)C2)CCC1=O` (stereo not drawn), which Potency is on record?
**A.** inconclusive: 89.1 µM [inhibitor, single point]

**Q.** With `CCNC(=O)NC1(CC2CC2)CCN(C(=O)NCCc2ccccc2)CC1` as the molecule, how does the “activity change, negative = cytotoxicity” value read?
**A.** inactive: -18.8%

**Q.** With `CCCCc1ncc(CN2CCCC(C(=O)Nc3ccccc3-c3ccc(OC)cc3)C2)[nH]1` (stereo not drawn) as the molecule, how does the Potency read?
**A.** inconclusive: 50.1 µM [inhibitor, partial curve, poor fit]

**Q.** For `Cc1ccc(-c2nc(C(=O)NCc3ccco3)no2)cc1`, which “activity change, negative = cytotoxicity” value is on record?
**A.** inactive: -15%

**Q.** With `O=C(c1cc(-c2ccsc2)c2nncn2n1)N1CCCC1` as the molecule, how does the “activity change, negative = cytotoxicity” value read?
**A.** inactive: -31.5% [at 138 µM]

**Q.** For `CCN1c2cc(C(=O)Nc3ccc(F)cc3)ccc2C(=O)N2CCCCC21` (stereo not drawn), which Potency is on record?
**A.** inconclusive: 50.1 µM [inhibitor, partial curve, poor fit]

**Q.** For `O=C1[C@H]2CN(Cc3ccc(F)cc3Cl)C[C@H]2C(=O)N1Cc1ccc2c(c1)OCO2`, which Potency is on record?
**A.** inconclusive: 44.7 µM [inhibitor, partial curve, poor fit]

**Q.** For `Cc1ccc(OCC(O)CNc2nc(C)nc3c2c(C)nn3C)c(C)c1` (stereo not drawn), which Potency is on record?
**A.** inconclusive: 70.8 µM [inhibitor, partial curve, poor fit]

**Q.** For `CCC(=O)N1CCN(c2nc3c(s2)CC(C(=O)Nc2ccc4c(c2)OCO4)CC3)CC1` (stereo not drawn), which Potency is on record?
**A.** inconclusive: 44.7 µM [inhibitor, partial curve, poor fit]

**Q.** Which Potency does the source give for `CC(C)S(=O)(=O)N1CCC2(CC1)NCCc1c2[nH]c2ccccc12` here?
**A.** inconclusive: 50.1 µM [inhibitor, partial curve, poor fit]

**Q.** For `COc1ccccc1CCC(=O)N1CCC2(CC1)NC(=O)N(c1cccc(F)c1)N2`, which Potency is on record?
**A.** inconclusive: 20 µM [inhibitor, full curve, poor fit]

**Q.** Which Potency does the source give for `CCCc1noc(-c2cn(C3CCN(C(=O)c4ccc(C)s4)CC3)nn2)n1` here?
**A.** inconclusive: 50.1 µM [inhibitor, partial curve, poor fit]

**Q.** Which “activity change, negative = cytotoxicity” value does the source give for `Cc1noc(C2CC3(CCN(C(=O)c4cccn4C)CC3)CN2C)n1` (stereo not drawn) here?
**A.** inactive: -9.48%

**Q.** With `COc1ccc(C)cc1NC(=O)Cn1cccc1-c1nc(-c2ccccc2)no1` as the molecule, how does the “activity change, negative = cytotoxicity” value read?
**A.** inactive: -12%

**Q.** With `CN(Cc1ccsc1)Cc1cccc(C(F)(F)F)c1` as the molecule, how does the “activity change, negative = cytotoxicity” value read?
**A.** inactive: -17.5% [at 138 µM]

**Q.** With `COc1ccc(CNC(=O)C[C@@H]2C[C@@H](C(C)C)[C@H](CC#N)C=C2C)cc1` as the molecule, how does the Potency read?
**A.** inconclusive: 70.8 µM [inhibitor, partial curve, poor fit]
